# Experimental data published in PubChem BioAssay AID1468 (National Center for Advancing Translational Sciences (NCATS), 2008).
# Out of some 280,000 compounds screened, about 1,100 (0.39%) were called active. Inconclusive means that the source gave no clear call. Such entries were picked first, then a sample of the others. Calls follow the shape of the dose curve; as a rule, active = well fitted inhibition curve with a large enough effect; inconclusive = small, poorly fitted or top-dose-only effect, or effect the other way; inactive = flat fitted curve, though single readings scatter. Potencies of inconclusive entries are left out as doubtful fits.
# Target: Microtubule-associated protein tau (Homo sapiens) (UniProt P10636)
# Assay: qHTS for Inhibitors of Tau Fibril Formation, Fluorescence Polarization; also: nearly all actives have a fitted effect of over 55% in size
# Settings: K18 P301L tau heparin fibrillization, Alexa594 FP, 6 h; series mostly up to 57.7 µM; activity, negative = inhibition: at the top concentration
# In short: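 Quantitative HTS format: compounds meet 15 uM recombinant K18 P301L tau and Alexa 594-tau tracer in 100 mM sodium acetate pH 7; 20 uM heparin triggers fibrillization at 37 C over 6 hr; FP gives the signal.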
# % is scaled to controls: 0 for no effect and ±100 for the full control effect; potency is read from the fitted curve at half-maximal effect; tags tell the direction and shape of the fitted curve.
# Chain of UniProt P10636 (P10636 whole entry, looked up): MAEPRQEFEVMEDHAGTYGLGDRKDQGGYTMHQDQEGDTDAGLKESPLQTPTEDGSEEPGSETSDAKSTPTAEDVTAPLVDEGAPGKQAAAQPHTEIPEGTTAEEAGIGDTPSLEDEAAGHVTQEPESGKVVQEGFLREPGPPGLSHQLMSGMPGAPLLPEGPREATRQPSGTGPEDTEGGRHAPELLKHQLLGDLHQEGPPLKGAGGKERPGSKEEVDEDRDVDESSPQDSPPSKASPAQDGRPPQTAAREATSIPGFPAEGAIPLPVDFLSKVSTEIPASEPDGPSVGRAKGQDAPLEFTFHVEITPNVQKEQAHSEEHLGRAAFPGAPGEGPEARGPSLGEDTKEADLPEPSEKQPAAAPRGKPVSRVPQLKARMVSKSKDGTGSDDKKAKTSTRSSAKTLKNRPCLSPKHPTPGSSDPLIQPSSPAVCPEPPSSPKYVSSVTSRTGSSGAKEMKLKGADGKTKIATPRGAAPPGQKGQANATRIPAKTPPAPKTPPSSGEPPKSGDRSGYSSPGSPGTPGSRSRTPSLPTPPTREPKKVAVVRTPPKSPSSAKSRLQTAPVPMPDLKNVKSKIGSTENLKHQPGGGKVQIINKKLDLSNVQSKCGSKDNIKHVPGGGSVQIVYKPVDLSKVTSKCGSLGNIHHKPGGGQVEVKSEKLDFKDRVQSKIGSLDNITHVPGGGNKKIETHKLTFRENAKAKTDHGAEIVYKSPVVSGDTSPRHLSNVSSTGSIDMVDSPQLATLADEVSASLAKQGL
Structure (SMILES),Potency,"activity, negative = inhibition"
O=c1c(-c2nc3ccccc3s2)cccn1Cc1ccc(Cl)c(Cl)c1,"inconclusive [inhibitor, partial curve, poor fit]",
CN(C)c1ccc(NC(=O)CSC2=Nc3ccccc3C3=NC(CC(=O)NCc4ccccc4)C(=O)N23)cc1 (centres undefined),"inconclusive [activator, single point]",
CCOC(=O)c1c(NC(=O)C(C)Sc2c[nH]c3ccccc23)sc2c1CCC2 (centres undefined),"inconclusive [inhibitor, partial curve, poor fit]",
COc1ccc(CCNC(=O)c2nn(C)c3c2CSc2ccccc2-3)cc1OC,"inconclusive [inhibitor, single point]",
O=C(c1ccco1)n1nc(-c2ccccc2)nc1NCc1ccccc1Cl,"inconclusive [inhibitor, single point]",
O=[N+]([O-])c1ccc(C=Nc2cccc3ccccc23)s1,,inactive: -0.889%
O=C(NCc1ccccc1Cl)C1CCC(CNS(=O)(=O)c2ccc(Br)s2)CC1 (centres undefined),"inconclusive [inhibitor, single point]",
Cc1cc2c(NC(=O)Nc3ccc(C(F)(F)F)cc3)cccc2nn1,active: 28.2 µM,
CC(C)[C@H](NC(=O)OC(C)(C)C)c1nnc(S(=O)(=O)Cc2c(F)cccc2Cl)o1,"inconclusive [inhibitor, single point]",
O=C(CSc1nc2cc(Cl)c(Cl)cc2[nH]1)c1ccc2c(c1)OCO2,"inconclusive [inhibitor, full curve]",
Cc1sc(N)nc1C12CC3CC(CC(C3)C1)C2,"inconclusive [inhibitor, full curve, poor fit]",
Nc1nnc(SCC(=O)c2ccccc2)s1,,inactive: 7.07%
COc1ccc(OC)c(CNC(=O)CN2C(=O)CCn3nc(-c4cn(C)c5ccccc45)cc32)c1,"inconclusive [activator, single point]",
N#Cc1ccc(NS(=O)(=O)c2ccc(-c3cnc(C4CC4)o3)cc2)cc1,"inconclusive [inhibitor, partial curve]",
Cc1noc(-c2ccc(C(F)(F)F)cc2)c1NC(=O)Nc1ccc(Cl)cc1,"inconclusive [inhibitor, partial curve]",
CCc1cccc(NC(=O)CN2C=NS(=O)(=O)c3ccccc32)c1,"inconclusive [inhibitor, single point]",
Cc1ccc(C)c(NC(=S)c2ccc3ccccc3n2)c1,,inactive: -4.04%
CNC(=O)c1ccc(Nc2nnc(-c3ccc(C)c(S(=O)(=O)N4CCOCC4)c3)c3ccccc23)cc1,"inconclusive [inhibitor, single point]",
COc1ccc(N=C2NN=C(c3ccc4c(c3)OCCO4)CS2)cc1,"inconclusive [inhibitor, single point]",
O=C(Nc1cccc(Cl)c1)c1ccc(Cn2cc(Cl)cn2)cc1,"inconclusive [inhibitor, partial curve]",
COc1ccccc1C(=O)NC(=O)Nc1ccc(-n2nc(C(F)(F)F)cc2C(F)(F)F)cc1,"inconclusive [inhibitor, partial curve]",
COc1ccccc1Nc1nc(N)nc(CSC(=S)N2CCN(c3ccccc3)CC2)n1,,inactive: -7.63%
c1ccc2c(-n3ccnc3)nc(-c3ccoc3)nc2c1,"inconclusive [inhibitor, single point]",

Structure (SMILES),Potency,"activity, negative = inhibition"
CCOc1cc(NC(=O)C2CC2)c(OCC)cc1NC(=O)c1ccccn1,"inconclusive [activator, partial curve]",
Cc1ccc(-c2cc(C(=O)OC3CCOC3=O)c3ccccc3n2)c(C)c1 (centres undefined),"inconclusive [inhibitor, single point]",
Cn1cnnc1SCC(=O)Nc1ccc2nc(SCc3ccccc3F)sc2c1,"inconclusive [inhibitor, single point]",
COc1cnc(-c2ccccn2)nc1Sc1c(Cl)cccc1Cl,,inactive: -2.49%
Brc1ccc(C2NCCS2)cc1 (centres undefined),"inconclusive [inhibitor, single point]",
COc1ccc(NC(=O)Nc2nnc(N3CCCCCC3)s2)c(OC)c1,,inactive: -1.57%
CCN1CCN(CCNC(=O)c2ccc(/C=C3/Sc4ccccc4N(Cc4cccc(Cl)c4)C3=O)cc2)CC1,"inconclusive [inhibitor, partial curve, poor fit]",
COc1ccc(CN2CCSCC2)cc1O,,inactive: 2.39%
O=C1OC2(CCCCC2)OC(=O)C1=CNc1ccc2c(c1)OCO2,,inactive: 1.49%
CC(C)N(Cc1nc(COc2ccccc2)no1)Cc1nccn1C,,inactive: -3.35%
CCc1cc(CNC(=O)CC2C(=O)NCCN2Cc2cccc(OC)c2)on1 (centres undefined),"inconclusive [inhibitor, single point]",
COc1ccc(NC(=O)CC2C(=O)N(c3ccc(Cl)cc3)C(=S)N2CCc2ccncc2)cc1 (centres undefined),"inconclusive [inhibitor, full curve, poor fit]",
Cc1cc(C)c2nc(/N=C(\N)NC(=O)Nc3ccccc3)nc(C)c2c1,"inconclusive [inhibitor, single point]",
Cc1ccc(NC(=O)Nc2nnc(SCC(=O)N3CCC(C)CC3)s2)cc1,"inconclusive [inhibitor, single point]",
C=CCn1c(SCC(=O)c2cc(C)n(CCOC)c2C)nc2sc(C)c(C)c2c1=O,"inconclusive [inhibitor, single point]",
Cc1ccsc1/C=N/Nc1nc2ccccc2[nH]1,,inactive: 0.609%
O=C(NC1CCCCCC1)C(=O)NC1CCCC1,"inconclusive [inhibitor, full curve, poor fit]",
COc1ccc2nc(Nc3nc(-c4ccncc4)cs3)sc2c1,"inconclusive [activator, single point]",
CC(C)CCNC(=S)Nc1ccc([N+](=O)[O-])cc1,"inconclusive [inhibitor, partial curve]",
CCOC(=O)c1c(-c2ccc(-c3ccccc3)cc2)csc1NC(=O)C1C2CCC(O2)C1C(=O)O (centres undefined),"inconclusive [inhibitor, single point]",
Cc1ccc(NC(=O)Cn2cc(S(=O)(=O)N3CCCC3)c(S(=O)(=O)N3CCCC3)c2)cc1C,,inactive: -9.13%
CCOC(=O)c1sc(NC(=O)Cn2nnc3sc4c(c3c2=O)CCCC4)nc1C,"inconclusive [inhibitor, single point]",
CCOc1ccccc1NC(=O)c1cccc(NC(=O)c2ccco2)c1,,inactive: -2.43%

Structure (SMILES),Potency,"activity, negative = inhibition"
COc1ccc(CCNC(=O)CCCn2c(=O)c3ccccc3n(Cc3ccccc3C#N)c2=O)cc1OC,,inactive: -2.43%
COc1cccc(C2C=C(c3ccccc3)Nc3c(C(=O)Nc4ccccc4)cnn32)c1OC (centres undefined),"inconclusive [activator, full curve, poor fit]",
COc1cc(C(CC(=O)Nc2cccc(C(C)=O)c2)N2Cc3ccccc3C2=O)cc(OC)c1OC (centres undefined),,inactive: -9.25%
O=C(CSc1ccc(-c2ccco2)nn1)NCc1ccc(F)cc1,,inactive: -6.42%
CC1CN(c2nc3ccccn3c(=O)c2C=O)CC(C)O1 (centres undefined),,inactive: -3.4%
COc1cc(OC)cc(C(=O)Nc2ccc(-c3nc4cc(C(C)C)ccc4o3)cc2)c1,"inconclusive [inhibitor, partial curve]",
COc1cc(N(C)C)c([N+](=O)[O-])cc1C(=O)NC(C)CNc1ccc([N+](=O)[O-])cc1Cl (centres undefined),,inactive: -6.24%
CCOC(=O)c1ccc(N2C(=O)c3n[nH]c(-c4cccs4)c3C2c2ccc(CC)cc2)cc1 (centres undefined),"inconclusive [inhibitor, partial curve]",
CCOC(=O)c1cccc(NS(=O)(=O)c2ccc3[nH]c4c(c3c2)CCCC4)c1,,inactive: -2.07%
N#CC1=C(N)NC(=S)C(C(N)=O)C1c1ccccc1F (centres undefined),"inconclusive [inhibitor, single point]",
O=C(CN1CC[n+]2c(-c3cccs3)csc21)c1ccc(-c2ccccc2)cc1,,inactive: 5.05%
CS(=O)(=O)N1CCN(c2ccc([N+](=O)[O-])c(NCCN3CCOCC3)c2)CC1,,inactive: 8.93%
CC(C)(C)NS(=O)(=O)c1ccc(CCC(=O)Nc2ccc3c(c2)OCO3)cc1,,inactive: 11%
CCOc1cccc(NC(=O)c2sc3nc(-c4ccc(F)cc4)ccc3c2N)c1,,inactive: -7.43%
COc1ccc(OC)c(-c2cc(C(=O)Nc3ccc(F)cc3F)no2)c1,,inactive: -11.9%
CCOC(=O)C1CCN(C(c2ccc(OCC)cc2)c2c(O)cc(C)n(CCOC)c2=O)CC1 (centres undefined),"inconclusive [inhibitor, partial curve]",
Nc1ccc2ncccc2c1N,"inconclusive [inhibitor, single point]",
O=c1c2oc3ccccc3c2n(Cc2ccc(F)cc2)c(=O)n1Cc1ccco1,"inconclusive [inhibitor, partial curve, poor fit]",
CCCCn1c(=NC(=O)c2c(-c3c(F)cccc3Cl)noc2C)c(C(=O)OCC)cc2c(=O)n3ccccc3nc21,"inconclusive [inhibitor, single point]",
O=C(CSc1nccc(=O)[nH]1)N1N=C2/C(=C/c3ccco3)CCCC2C1c1ccco1 (centres undefined),"inconclusive [inhibitor, single point]",
Nc1ccc(N2C(=O)c3ccccc3C2=O)c(Cl)c1,,inactive: -6.49%
CC(C)Oc1ccccc1OCCCCn1cnc2ccccc2c1=O,"inconclusive [inhibitor, partial curve]",
CCOc1ccc(-c2oc3ccc(C)cc3c(=O)c2O)cc1,"inconclusive [inhibitor, single point]",
